Experimental data published in PubChem BioAssay AID1508623 (National Center for Advancing Translational Sciences (NCATS), 2021).
Screen size: about 48,000 compounds; about 450 (0.94%) were called active. Another 19% or so got no clear call; they are omitted. Calls follow the shape of the dose curve; as a rule, active = well fitted inhibition curve with a large enough effect; inconclusive = small, poorly fitted or top-dose-only effect; inactive = no such curve, though single readings can be large or run the other way. Some of the results follow.

Assay: Primary qHTS for Identification of Small Molecule Inhibitors of Huntingtin Promoter Activity; also: nearly all actives have a fitted effect of over 50% in size
Conditions: HEK293 HTT promoter firefly luciferase reporter (activity 0% = vehicle and -100% = no light), 24 h; series mostly up to 57.5 µM; activity change, negative = inhibition: at the top concentration
How it was run: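 HEK293 Fluc reporter, 2,500 cells/well, 24 h pre-culture; cpds up to 57.5 uM final, 24 h 37 degrees C; Dual-Glo, 10 min RT; normalized vehicle = 0%, zero RLU = -100%.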

Activity change, negative = inhibition, inactive:
Cn1cnc(S(=O)(=O)N2CCCC(C(=O)NCc3ccccc3)C2)c1 (configuration not stated) -13.2%, Cc1cccc(N2CCN(C(=O)Cn3ncc4c([nH]c5ccccc54)c3=O)CC2C)c1 (configuration not stated) 8%, CCOc1ccc(NC(=O)c2cc(C)nc3c2c(C)nn3-c2cccc(F)c2)cc1 -9.67%, CC1(C(=O)NC2CCCCC2)Cc2ccccc2C(=O)N1Cc1ccc(F)cc1 (configuration not stated) -27.7%, Cc1c(OCC(F)(F)F)ccnc1CS(=O)c1nc2ccccc2[nH]1 (configuration not stated), O=C(CSc1nc2ccccc2nc1Cc1ccccc1)Nc1ccccc1C(F)(F)F -15.1%, CCOc1ccc(CNC(=O)c2cnc3sc(N(CC)CC)nn3c2=O)cc1 -3.48%, O=C(NCCS(=O)(=O)N1CCN(c2ccccc2F)CC1)C1CC(=O)N(c2ccccc2)C1 (configuration not stated) -14.6%, Nc1nc(F)nc2c1ncn2[C@@H]1O[C@H](CO)[C@@H](O)[C@@H]1O -0.85%, O=C(Nc1ccc(C(=O)OCc2cc(=O)n3nc(C4CC4)sc3n2)cc1)c1cccc(Cl)c1 -3.31%, CCc1ccccc1NC(=O)C(CC)Oc1ccccc1-c1nnc(-c2ccccc2)o1 (configuration not stated) -5.57%, CCOC(=O)CCCN1C(=O)CCn2nc(-c3cn(C)c4ccccc34)cc21 -14.7%, CCCCN(Cc1ccccc1)S(=O)(=O)c1cc(Br)cc2c1N(C(C)=O)CC2 -17.2%, COc1ccc(C(=O)Nc2c(C(=O)c3ccc(F)cc3)oc3ccccc23)cc1 10.2%, COc1ccc(-c2nc3c(c(SCC(=O)Nc4ccccc4OC)n2)Cc2cccc(C)c2O3)cc1 -4.77%, CCOCCCNC(=O)c1cc(=O)[nH]c2ccc(S(=O)(=O)N3CCCC3)cc12 -6.81%, CCOc1ccc(CNC(=O)c2cccn2-c2nnc(N3CCCCC3)s2)cc1OC -23.8%, CCCSc1ncc(Cl)c(C(=O)Nc2scc(-c3ccc(C)cc3)c2C(=O)OCC)n1 -14.7%, O=C1NC(=O)[C@@]2(CCOc3ccc(F)cc32)N1 7.9%, CCC(C)NC(=O)Cc1ccc(NC(=O)N2CCCCc3ccccc32)cc1 (configuration not stated) -21.6%, Cc1cc(C)cc(OCc2cc(=O)n3c4c(sc3n2)CCCC4)c1 -8.27%, N#Cc1ccccc1NC(=O)C(=O)NCC(c1ccc2c(c1)OCO2)N1CCOCC1 (configuration not stated) 1.93%, Cc1ccc(-n2c(=O)c3oc4ccccc4c3n(CC(=O)Nc3ccc(F)c(Cl)c3)c2=O)cc1C -2.28%, O=C(CS(=O)(=O)c1cccc2nsnc12)Nc1ccc(F)cc1F -4.88%, CC(C)CCNC(=O)c1c2c(nc3ccccc13)C(=O)N(C1CCCCC1)C2 -22.3%, CCCCN(C)C(=O)c1ccc2c(c1)N(Cc1ccc(F)cc1)C(=O)c1ccccc1S2(=O)=O -25.9%, COc1ccccc1N1CCN(S(=O)(=O)CCNC(=O)COc2ccccc2F)CC1 -12.6%, Cc1ccc(CNc2ncccc2-c2nc(-c3ccc(Cl)cc3)no2)cc1 15.4%, O=C(CCCn1c(=O)c2sccc2n(Cc2ccc(Cl)cc2)c1=O)NCc1ccc2c(c1)OCO2 -21.5%, COc1ccc(Br)cc1CNC(=O)CCc1cn(Cc2ccc(C)cc2)c2ccccc12 -28.7%, Cc1scc(CN2CCN(c3ccc(F)cc3)CC2)c1C -5.02%, COC(=O)c1sccc1S(=O)(=O)N1CCN(c2ccc(Cl)cc2)CC1 -20.3%, Cc1ccc(-c2nc(S(=O)(=O)c3ccccc3)c(SCC(=O)NC3CCCCC3)o2)cc1 -14.1%, CC(C)c1ccc(NC(=O)CN2C(=O)CSc3ccc(S(=O)(=O)N4CCCC4)cc32)cc1 -17.6%, CC(C)CC(NC(=O)C1CCCCC1)C(=O)Nc1cccc(C(F)(F)F)c1 (configuration not stated) -12.1%, Cc1ccc(Cl)cc1NC(=O)c1cc(CN2CCCC2)on1 21.7%, CCc1ccc(NC(=O)c2ccc(NS(=O)(=O)c3c(C)noc3C)cc2)cc1 -21.9%, CCc1cccc(C)c1NC(=O)c1cc(S(=O)(=O)N2CCCCCC2)cn1C -24.7%, COc1ccc(-c2cc(C(F)(F)F)nc(SCCC(=O)Nc3cccc(OC)c3)n2)cc1 -20.7%, O=C(COc1ccc(F)cc1)Nc1ccc(S(=O)(=O)N(Cc2ccccc2)c2ccccc2)cc1 29.5%, CCc1ccc(CNC(=O)c2sc3nc[nH]c(=O)c3c2C)cc1 3.12%, CCc1ccc(Nc2nnc(-c3cc4cc(OC)ccc4oc3=O)s2)cc1 -9.46%, COc1ccc(OC)c(CNc2ncnc3c2nc2n3CCCC2)c1 -21.1%, CCN(C(=O)Cc1c(C(=O)O)c(C)cn1C)c1cccc(Cl)c1 -11%, CCc1c(C)nc(SCc2nc(-c3ccccc3C)no2)[nH]c1=O -27.8%, Cc1ccc(NC(=O)c2sc3nc(-c4ccncc4)ccc3c2N)cc1 6.62%, CCOc1ccc(S(=O)(=O)c2c(C(=O)c3ccc(C)c(C)c3)cnc3ccccc23)cc1 -17.1%, Cc1ccc(CNC(=O)CCc2nnc3n(C)c(=O)c4sccc4n23)cc1 -16.8%, COc1cc(NC(=O)C(NS(=O)(=O)c2ccc3c(c2)CCCC(=O)N3)C(C)C)cc(OC)c1 (configuration not stated) -21.6%, CC(=O)Nc1ccc(Nc2c(CCC(C)C)c(C)c(C#N)c3nc4ccccc4n23)cc1 5.84% [at 11.5 µM], CC(=O)N[C@@H](CC(C)C)C(=O)O 9.42%, COC(=O)c1sccc1S(=O)(=O)N(CC(=O)Nc1ccc(C)c(F)c1)c1ccc(C)c(C)c1 -10.9%, Cc1ccccc1Cn1c(=O)n(CCc2ccccc2)c(=O)c2sc3ccccc3c21 35.6%, CCc1ccc(C(=O)NC2=NC(c3cc(OC)ccc3OC)CC(=O)N2)cc1 (configuration not stated) -20.8%, Cc1ccc(-c2nn(C)c(=O)c3ccccc23)cc1S(=O)(=O)NCCCN(C)C 14.4%, CC(=O)Nc1ccc(NC(=O)C(c2ccccc2)N2Cc3ccccc3C2=O)cc1 (configuration not stated) -14.4%, COC(=O)c1ccc(-c2nc(-c3ccc(OC)c(OC)c3)no2)cc1 16.5%, O=C(Nc1ccc(-c2nc3cc(NC(=O)c4ccc(Cl)cc4)ccc3o2)cc1)c1ccc(Cl)cc1 -0.0437%, COc1ccc(-c2cc(C(F)(F)F)n3nc(C(=O)Nc4sc5c(c4C(=O)OC(C)C)CCC(C)C5)cc3n2)cc1 (configuration not stated) 2.44%, CCCN(CCC)C(=O)C1CCCN(S(=O)(=O)c2cc(Br)cc3c2N(C(=O)CC)CC3)C1 (configuration not stated) -4.42%, CCc1ccc(-n2nc(CO)c(C(=O)NCc3cccnc3)n2)cc1 -23.1%, Cc1cc(C)cc(NC(=O)CCc2c(C)nc3c(c2C)c(=O)n(C)c(=O)n3C)c1 3.67%, O=S(=O)(c1ccc(Br)cc1)c1nnn2c1nc(NCCc1ccccc1)c1sccc12 1.88%, Cc1nc2ccc(S(=O)(=O)NC(C(=O)N3CCN(c4cccc(Cl)c4)CC3)C(C)C)cc2s1 (configuration not stated) -11.5%, Cc1nc(N2CCCC2)ncc1C(=O)NCc1ccc(F)cc1 -19.8%, Cc1cn2c(=O)c(S(=O)(=O)Nc3ccc(N4CCOCC4)cc3)c(C)nc2s1 4.01%, COCCNC(=O)c1cnn(-c2cccc(C)c2)c1-n1cccc1 9.89%, CC1CCN(S(=O)(=O)c2cc(C(=O)NCc3ccccc3)n(C)c2)CC1 -14.3%, COc1cc2ncc3c(-c4ccccc4)nn(CC(=O)NC4CCCCC4)c3c2cc1OC -19%, COc1ccc(C2=C(C)C(N3CCN(c4ccc(OC)cc4)CC3)=NS2(=O)=O)cc1 -15.3%, COc1ccc(C(=O)NNc2ncnc3c2cnn3-c2ccc(C)cc2C)cc1 -31%, CN(C(=O)c1ccc2c(c1)N(Cc1ccc(F)cc1)C(=O)c1ccccc1S2(=O)=O)C1CCCCC1 -29%, Cc1cc(N2CCC(C(=O)Nc3ccccc3Cl)CC2)n2nc(C)c(-c3ccc(Cl)cc3)c2n1 -5.58%, Fc1cccc(-c2nnn3c2nc(NCc2ccc4c(c2)OCO4)c2ccccc23)c1 -3.4%, CCOC(=O)Cn1c(=O)oc2cc(S(=O)(=O)NC(C)c3ccccc3)ccc21 (configuration not stated) 2%, CCc1ccc(CN(C(=O)Nc2cccc(Cl)c2)c2ccccn2)cc1 13%, O=C(NCCS(=O)(=O)c1ccc(C(F)(F)F)cn1)c1ccc(Cl)cc1 -0.396%, COc1ccccc1CNC(=O)c1ccc(-n2c(C)cc3c2CCCC3)cc1 10.1%, Cc1c(Cl)cccc1NS(=O)(=O)c1ccc(NS(=O)(=O)c2ccc3c(c2)OCCO3)cc1 -27.8%, COc1ccc(Cl)cc1NC(=O)c1cnc(N2CCCCC2)c2ccccc12 -11.9%, CCOc1ccc(NC(=O)C2CCN(S(=O)(=O)c3c(C)noc3/C=C/c3ccco3)CC2)cc1 -23.4%, CCOc1ccc(NC(=O)CCn2cccn2)cc1 30%, CCCCOC(=O)/C(C#N)=C\c1ccc(-c2ccc(Cl)cc2)o1 10.1%, Cc1ccc(-c2nc3ccccn3c2Nc2ccc3c(c2)OCCO3)o1 -10.6%, O=C(Nc1ccc(Br)cc1)C1CCN(c2ncccn2)CC1 -7.11%, COc1cc(NC(=O)C(=O)Nc2ccc3nc4n(c(=O)c3c2)CCCCC4)cc(OC)c1OC -24.8%, CC(C)NC(=O)N1CCN(S(=O)(=O)c2ccc3c(ccn3C)c2)CC1 -31.7%, Cc1ccc(C)c(NC(=O)CN(C)S(=O)(=O)c2ccc3c(c2)CCC(=O)N3)c1 -15.6%, CCOC(=O)c1cc(-c2ccc(OC)cc2)n(CCC(=O)NCc2ccc(OC)cc2)c1C -1.25%, OCc1ccccc1O[C@@H]1O[C@H](CO)[C@H](O)[C@H](O)[C@H]1O -9%, Cc1ccccc1C(=O)Nc1nnc2n1CCS2 45.5%, CCOC(=O)c1c(C)[nH]c(C)c1S(=O)(=O)N1CCCC(C(=O)NCc2cccc(OC)c2)C1 (configuration not stated) -8.69%, Cc1cc(C(=O)N2CCN(c3cccc(C)c3C)CC2)c2c(C)nn(-c3ccccc3)c2n1 -12.7%, COc1cc(CNC(=O)CCCCC=CC(C)C)ccc1O 1.93%, COc1cccc(-c2ccc3c(N)c(C(=O)Nc4cc(C(F)(F)F)ccc4OC)sc3n2)c1 14.4%, Cc1ccc(C(=O)c2cn(CC(=O)NCc3ccccc3Cl)c3nc(C)ccc3c2=O)cc1 -5.09%, CCCC(=O)NC(C)c1nc2ccccc2n1Cc1ccccc1 (configuration not stated) 2.28%
